Results as given in PubChem BioAssay AID743279 (National Center for Advancing Translational Sciences (NCATS), 2014).
Hit rate of the full screen: of about 360,000 compounds, about 17,000 (4.7%) were called active. The inconclusive results got no clear call from the source; some entries with a clear call stand among them for comparison. No stated cut-off is given here; in the data, active means activity change below about -50%; inconclusive means mostly about -30% to -49%; inactive means weaker than that.

Test: qHTS for Inhibitors of Inflammasome Signaling: IL-1-beta AlphaLISA Primary Screen
Settings: THP-1 LPS/ATP IL-1B secretion, 16 h; at 57.5 µM, hits give low values
Method in brief: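 THP-1 cells pretreated 1 hr with compounds (up to 57.5 uM final), then stimulated with LPS (250 ng/mL final) plus ATP (1.25 mM final); secreted IL-1B measured by AlphaLISA after 16 hr, decreased signal indicating inhibition.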
On the % scale 0 is the no-effect control and ±100 the full control effect.

Activity change, inactive:
Cc1ccc(C(C)C)c(OCC#CCN2CCOCC2)c1 15%
COc1ccc(Cc2nnc(SCC(=O)Nc3ccccc3C#N)o2)cc1 -3.97%
COc1ccc(NC(=O)Nc2cc(NC(=O)Nc3ccc(OC)cc3)c(C)nc2C)cc1 20.9%

Activity change, inconclusive:
COc1cc(OC)cc(-c2nc3nc(C)c(CCC(=O)NCc4ccco4)c(C)n3n2)c1 -39.2%
CCCN(CCC)CCCNC(=S)Nc1ccc2nc(N3CCN(C)CC3)cc(C)c2c1 -32.9%
Cc1cccc2cc(CN(Cc3nnnn3C3CCCCC3)C3CCCC3)c3nnnn3c12 -36.3%
CC(C)OCCCNC(=O)c1cc2c(=O)n(C)c3ccccc3c2n1C -38.2%
CC(C)c1cc(C(=O)N/N=C/C=C/c2ccccc2)n[nH]1 -34.1%
Cc1ccc2nc(/C(C#N)=C\c3ccc(OC(=O)c4cccs4)cc3)[nH]c2c1 -31.2%
Cc1cccc(CN2CCN(C(=O)c3ccccc3F)CC2)c1 -34.8%
CC1(C)CC(NC(=O)C(c2ccccc2)c2ccccc2)CC(C)(C)N1 -46.9%
Nc1nccc2c1ncn2C1OC(CO)C(O)C1O (stereo not drawn) -36.1%
CCOC(=O)[C@]12CCCC=C1N(CCc1ccc(OC)c(OC)c1)C(=O)[C@H](CC(=O)NCc1ccccc1)C2 -33.8%
COc1ccccc1C(CNC(=O)c1cccc(NS(=O)(=O)c2ccc(C)c(F)c2)c1)N1CCCC1 (stereo not drawn) -49.8%
COc1ccc(Nc2nc(C(=O)N3CCc4ccccc4C3)cs2)cc1 -38.6%

Activity change, active:
CCOC(=O)C1(CCOc2ccccc2)CCN(Cc2cccc3c2OCO3)CC1 -84.3%
Cc1ccc(NS(=O)(=O)c2cc([N+](=O)[O-])ccc2NNC(=S)Nc2cc(C)ccc2C)c(C)c1 -66.9%
COc1ccc(CCN(C)Cc2c(O)ccc3cc(Br)ccc23)cc1OC -94.1%
COc1ccc(/C=N/Nc2cc(C)nc(-n3nc(C)cc3C)n2)cc1 -99.4%
C=CC[C@H](CC(=O)N(CCO)Cc1ccccc1)C(=O)N[C@H](COC(=O)[C@@H](CC=C)Cc1ccc(F)cc1)C(C)(C)C -61.4%
C=CC[C@@H](CC(=O)N[C@H](CO)Cc1ccccc1)C(=O)N[C@H](COC(=O)[C@@H](CC=C)CC(=O)OC(C)(C)C)Cc1ccccc1 -52%
O=C(/C=C/c1ccc2c(c1)OCO2)c1ccc(O)cc1O -94.5%
CC(CCCN(C)C)C(Cc1ccccc1)c1ccccc1 (stereo not drawn) -65.6%
